From the supplement of paper PMC9446081
Screen size: about 39,000 compounds; about 220 (0.56%) showed activity. Some of the results follow.

System: Escherichia coli K-12 BW25113
Assay: relative growth (OD600 normalised to plate interquartile mean) (fraction); higher = less growth inhibition, active = 0.2 or less
Conditions: 50 µM; LB; incubation time: overnight (16-24 h)
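Further: static incubation at 37 °C against the wild-type strain, values averaged over two biological replicates.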

SMILES | relative growth
CCc1ccc(-c2cc3c(=O)n(CC(=O)NCCN4CCOCC4)nc(C)n3n2)cc1 | inactive: 1.03
O=C(C[C@@H]1CC[C@H]2[C@@H](COC[C@@H](O)CN2C(=O)Nc2ccc(Cl)c(Cl)c2)O1)NCc1ccncc1 | inactive: 0.928
C[C@H]1CN([C@@H](C)CO)C(=O)c2cccc(NS(=O)(=O)c3cn(C)cn3)c2O[C@@H]1CN(C)Cc1ccc(C(=O)Nc2ccccc2N)cc1 | inactive: 1.03
CN1CCC[C@H](C(=O)O)C1 | inactive: 1.07
CC(C)CC#Cc1ccc2c(c1)O[C@H](CN(C)C(=O)Cc1ccncc1)[C@@H](C)CN([C@@H](C)CO)S2(=O)=O | inactive: 0.976
C[C@@H]1CN([C@@H](C)CO)C(=O)c2cccc(NC(=O)C3CCOCC3)c2O[C@H]1CN(C)Cc1ccc2c(c1)OCO2 | inactive: 1
C[C@@H]1CN([C@H](C)CO)C(=O)c2cccc(NC(=O)C3CCOCC3)c2O[C@H]1CN(C)Cc1ccc(Oc2ccccc2)cc1 | inactive: 0.996
C[C@@H]1CN([C@@H](C)CO)C(=O)c2cc(NC(=O)Nc3cccc4ccccc34)ccc2O[C@H]1CN(C)Cc1ccccc1 | inactive: 1
NCCCn1c2c(c3ccccc31)CCCC2 | inactive: 0.899
O=C(Nc1cc(C(=O)Nc2ccc(S(=O)(=O)O)c(S(=O)(=O)O)c2)cc(C(=O)Nc2ccc(S(=O)(=O)O)c(S(=O)(=O)O)c2)c1)Nc1cc(C(=O)Nc2ccc(S(=O)(=O)O)c(S(=O)(=O)O)c2)cc(C(=O)Nc2ccc(S(=O)(=O)O)c(S(=O)(=O)O)c2)c1 | inactive: 1
CCN(CC)c1ncc(C#N)c(N)n1 | inactive: 0.987
Cn1cc[nH]c1=S | inactive: 0.963
C[C@@H]1CN([C@H](C)CO)C(=O)Cc2cc(NS(=O)(=O)c3ccc(F)cc3)ccc2O[C@@H]1CN(C)Cc1ccncc1 | inactive: 0.997
C[N+](C)(C)CCCC[C@@H]1NC(=O)[C@H]2C[C@@H](C(=O)NCc3ccc(F)cc3)[C@@H](c3ccc(O)cc3)N2C1=O | inactive: 0.881
Cc1ccc(S(=O)(=O)N(C)C[C@H]2OCCCC[C@@H](C)Oc3ccc(NC(=O)Nc4ccc(F)cc4)cc3C(=O)N([C@H](C)CO)C[C@@H]2C)cc1 | inactive: 1.02
C[C@@H]1CN([C@H](C)CO)C(=O)c2cc(NC(=O)CCCN(C)C)ccc2O[C@H]1CN(C)Cc1ccc2c(c1)OCO2 | inactive: 0.981
COc1ccc(NC(=O)Nc2ccc3c(c2)C(=O)N([C@@H](C)CO)C[C@H](C)[C@@H](CN(C)Cc2ccc(C(F)(F)F)cc2)OCCCC[C@H](C)O3)cc1 | inactive: 0.939
Cc1noc(C)c1S(=O)(=O)Nc1ccc2c(c1)C(=O)N([C@H](C)CO)C[C@H](C)[C@@H](CN(C)S(C)(=O)=O)OCCCC[C@@H](C)O2 | inactive: 0.974
NC(=O)N1C(=O)[C@H]2[C@H](C1=O)[C@H]1C=C(c3ccc(CO)cc3)[C@@H]2[C@@H](C2CC2)N1Cc1cc2c(cc1Br)OCO2 | inactive: 1.04
C[C@@H]1CCCCO[C@H](CN(C)S(=O)(=O)c2ccc(Cl)cc2)[C@@H](C)CN([C@@H](C)CO)C(=O)c2cc(NC(=O)Cc3ccccc3)ccc2O1 | inactive: 1.02

SMILES | relative growth
CCS(=O)(=O)NCC[C@H]1CC[C@H](NC(=O)Cc2ccccn2)[C@H](CO)O1 | inactive: 1
O=C(C[C@@H]1C/C=C/C[C@H](Cc2ccccc2)C(=O)N[C@H](c2ccccc2)COC1=O)NCc1ccc(Cl)cc1 | inactive: 1.03
C[C@@H]1CCCCO[C@H](CN(C)C(=O)Nc2ccc3c(c2)OCO3)[C@@H](C)CN([C@@H](C)CO)C(=O)c2cc(NC(=O)Cc3ccccc3)ccc2O1 | inactive: 1.03
COc1ccc(S(=O)(=O)Nc2ccc3c(c2)CC(=O)N([C@H](C)CO)C[C@H](C)[C@@H](CN(C)S(=O)(=O)c2ccc(OC)cc2)O3)cc1 | inactive: 0.997
C[C@@H]1CCCCO[C@H](CN(C)Cc2ccc(C(F)(F)F)cc2)[C@@H](C)CN([C@@H](C)CO)C(=O)c2cc(NC(=O)CCC(F)(F)F)ccc2O1 | inactive: 0.955
Cc1ccc2c(c1)[C@](C)(O)CCS2 | inactive: 1.01
COc1ccccc1CNC(=O)C[C@@H]1C[C@H]2c3cc(NC(=O)NC4CCCC4)ccc3O[C@H]2[C@H](CO)O1 | inactive: 0.987
COc1ccccc1-c1ccc2c(c1)O[C@H](CN(C)CC1CCOCC1)[C@@H](C)CN([C@H](C)CO)S2(=O)=O | inactive: 1.04
C[C@H]1CN([C@@H](C)CO)C(=O)Cc2cc(NC(=O)NC3CCCCC3)ccc2O[C@@H]1CN(C)S(=O)(=O)c1cn(C)cn1 | inactive: 1
Cc1ccc(S(=O)(=O)N(C)C[C@@H]2OCCCC[C@@H](C)Oc3ccc(NC(=O)Cc4ccccc4)cc3C(=O)N([C@H](C)CO)C[C@@H]2C)cc1 | inactive: 1
CN(C)CCCCCCNC(=O)[C@@H]1C[C@@H]2C(=O)N[C@@H](CCCC[N+](C)(C)C)C(=O)N2[C@@H]1c1ccc(O)cc1 | inactive: 1.01
C[C@H](CO)N1C[C@H](C)[C@@H](CN(C)CC2CCOCC2)Oc2cc(C#Cc3cccnc3)ccc2S1(=O)=O | inactive: 1
C[C@H](CO)N1C[C@H](C)[C@@H](CN(C)C(=O)c2ccccc2F)Oc2cc(C#CCN(C)C)ccc2S1(=O)=O | inactive: 1.02
C[C@@H]1CN([C@@H](C)CO)C(=O)c2cccc(NC(=O)Nc3ccc(C(F)(F)F)cc3)c2O[C@H]1CN(C)S(=O)(=O)c1ccc(F)cc1 | inactive: 0.795
C[C@@H]1CN([C@@H](C)CO)S(=O)(=O)c2ccc(C3=CCCC3)cc2O[C@H]1CN(C)C(=O)C1CCOCC1 | inactive: 1.02
c1ccc(-c2cccs2)cc1 | inactive: 0.964
O=C(C[C@@H]1CC[C@@H]2[C@H](COC[C@@H](O)CN2C(=O)Nc2ccc(F)cc2)O1)NCCCN1CCOCC1 | inactive: 0.981
O=C(C[C@H]1C[C@@H]2c3cc(NS(=O)(=O)c4ccc(F)cc4)ccc3O[C@@H]2[C@@H](CO)O1)NCCN1CCCCC1 | inactive: 1.02
C[C@H](CO)N1C[C@H](C)[C@@H](CN(C)S(=O)(=O)c2cn(C)cn2)Oc2ccc(NC(=O)C3CC3)cc2C1=O | inactive: 1.02
Cc1ccc(S(=O)(=O)N(C)C[C@@H]2OCCCC[C@@H](C)Oc3ccc(NC(=O)Nc4ccc5c(c4)OCO5)cc3C(=O)N([C@H](C)CO)C[C@@H]2C)cc1 | inactive: 1

SMILES | relative growth
CCS(=O)(=O)N1C[C@]2(C1)CN([C@@H](CO)c1[nH]c3cc(ccc3c12)OC)S(=O)(=O)c1cccc(c1)OC | inactive: 1.02
C[C@@H]1CN([C@@H](C)CO)C(=O)c2cc(C#CCN(C)C)cnc2O[C@H]1CN(C)Cc1ccc(C(=O)O)cc1 | inactive: 0.997
O=C(NO)c1ccc(C(=O)N/N=C/[C@H](O)[C@@H](O)[C@@H](O)[C@H](O)CO)cc1 | inactive: 1.01
Cc1ccc(S(=O)(=O)N(C)C[C@@H]2OCCCC[C@@H](C)Oc3ccc(NC(=O)Nc4ccc(C(F)(F)F)cc4)cc3C(=O)N([C@H](C)CO)C[C@@H]2C)cc1 | inactive: 1.02
COc1ccc(S(=O)(=O)N(C)C[C@H]2Oc3ncc(C#CC4(O)CCCC4)cc3C(=O)N([C@H](C)CO)C[C@@H]2C)cc1 | inactive: 1.02
COCC(=O)N1C[C@@H](C)[C@@H](OC)CN(C)C(=O)c2cc(NC(=O)Nc3ccccc3)ccc2OC[C@@H]1C | inactive: 1.04
C[C@H]1CCCCO[C@H](CN(C)C(=O)CCC(F)(F)F)[C@@H](C)CN([C@@H](C)CO)C(=O)c2cc(NS(=O)(=O)c3ccccc3)ccc2O1 | inactive: 0.973
C[C@H]1CN([C@@H](C)CO)C(=O)c2cc(NS(C)(=O)=O)ccc2O[C@@H]1CN(C)S(=O)(=O)c1ccccc1 | inactive: 1
CC(C)CN[C@H]1CCS(=O)(=O)C1 | inactive: 1.07
CCOC(=O)c1cccc([C@@H]2CC(=O)N(C(=O)OCc3ccccc3)[C@@H]2C(=O)Nc2cccc3cccnc23)c1 | inactive: 1.02
Cc1noc(C)c1NC(=O)Nc1ccc2c(c1)CC(=O)N([C@H](C)CO)C[C@H](C)[C@@H](CN(C)S(=O)(=O)c1ccccc1)O2 | inactive: 1
C[C@@H]1CN([C@H](C)CO)C(=O)Cc2cc(NC(=O)C3CC3)ccc2O[C@H]1CN(C)Cc1ccc2c(c1)OCO2 | inactive: 1.01
COc1ccc(CN(C)C[C@@H]2OCCCC[C@H](C)Oc3ccc(NS(=O)(=O)c4ccc(OC)cc4)cc3C(=O)N([C@H](C)CO)C[C@H]2C)cc1 | inactive: 0.994
C[C@H](CO)N1C[C@H](C)[C@H](CN(C)C(=O)Nc2ccc(F)cc2)Oc2cc(C#CC3(O)CCCC3)ccc2S1(=O)=O | inactive: 1.01
COC(=O)C(N)CS.Cl (stereo not given) | inactive: 0.994
CC(C)NC(=O)N(C)C[C@@H]1Oc2ccc(NS(=O)(=O)c3ccc(F)cc3)cc2C(=O)N([C@@H](C)CO)C[C@@H]1C | inactive: 0.975
Cc1noc(C)c1NC(=O)Nc1ccc2c(c1)CC(=O)N([C@@H](C)CO)C[C@@H](C)[C@H](CN(C)Cc1ccc(Cl)c(Cl)c1)O2 | inactive: 1.01
CN1CCN(C(=O)C[C@@H]2CC[C@@H]3[C@H](COc4ccc(NC(=O)c5ccc(F)c(F)c5)cc4C(=O)N3C)O2)CC1 | inactive: 0.986
C[C@H]1CN([C@@H](C)CO)C(=O)Cc2cc(NC(=O)CCCCCC(=O)Nc3ccccc3N)ccc2O[C@@H]1CN(C)Cc1ccccc1 | inactive: 0.966
C[C@@H](N)C12CC3CC(CC(C3)C1)C2 | inactive: 0.971
